Measured values from PubChem BioAssay AID1347165 (National Center for Advancing Translational Sciences (NCATS), 2019).
Out of some 220,000 compounds screened, about 5,700 (2.6%) were called active. Inconclusive means that the source gave no clear call. Such entries were picked first, then a sample of the others. Calls follow the shape of the dose curve; as a rule, active = well fitted inhibition curve with a large enough effect; inconclusive = small, poorly fitted or top-dose-only effect; inactive = no such curve, though single readings can be large or run the other way. Where the call is inconclusive, the potency comes from a doubtful curve fit.

biological target: Lysine-specific demethylase 5B (Homo sapiens) (UniProt Q9UGL1); assay: Primary screen for KDM5B Histone Demethylases FDH-coupled qHTS; details: FDH-coupled NADH fluorescence (FDH is formaldehyde dehydrogenase); series mostly up to 57.7 µM; also: nearly all actives have a fitted effect of over 70% in size
Procedure, shortened: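 KDM5BΔAP (200 nM final) in 50 mM HEPES pH 7.5, 0.01% Tween-20 was preincubated 10 min at RT with compound over a concentration range. Substrate mix (H3K4me3 12.5 µM, α-KG 25 µM, Fe²⁺, ascorbate, NAD⁺, FDH) was added, and NADH fluorescence change over 30 min gave dose-response curves.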
Potency is read from the fitted curve at half-maximal effect; tags tell the direction and shape of the fitted curve.

Chain of UniProt Q9UGL1 (Q9UGL1 whole entry, looked up): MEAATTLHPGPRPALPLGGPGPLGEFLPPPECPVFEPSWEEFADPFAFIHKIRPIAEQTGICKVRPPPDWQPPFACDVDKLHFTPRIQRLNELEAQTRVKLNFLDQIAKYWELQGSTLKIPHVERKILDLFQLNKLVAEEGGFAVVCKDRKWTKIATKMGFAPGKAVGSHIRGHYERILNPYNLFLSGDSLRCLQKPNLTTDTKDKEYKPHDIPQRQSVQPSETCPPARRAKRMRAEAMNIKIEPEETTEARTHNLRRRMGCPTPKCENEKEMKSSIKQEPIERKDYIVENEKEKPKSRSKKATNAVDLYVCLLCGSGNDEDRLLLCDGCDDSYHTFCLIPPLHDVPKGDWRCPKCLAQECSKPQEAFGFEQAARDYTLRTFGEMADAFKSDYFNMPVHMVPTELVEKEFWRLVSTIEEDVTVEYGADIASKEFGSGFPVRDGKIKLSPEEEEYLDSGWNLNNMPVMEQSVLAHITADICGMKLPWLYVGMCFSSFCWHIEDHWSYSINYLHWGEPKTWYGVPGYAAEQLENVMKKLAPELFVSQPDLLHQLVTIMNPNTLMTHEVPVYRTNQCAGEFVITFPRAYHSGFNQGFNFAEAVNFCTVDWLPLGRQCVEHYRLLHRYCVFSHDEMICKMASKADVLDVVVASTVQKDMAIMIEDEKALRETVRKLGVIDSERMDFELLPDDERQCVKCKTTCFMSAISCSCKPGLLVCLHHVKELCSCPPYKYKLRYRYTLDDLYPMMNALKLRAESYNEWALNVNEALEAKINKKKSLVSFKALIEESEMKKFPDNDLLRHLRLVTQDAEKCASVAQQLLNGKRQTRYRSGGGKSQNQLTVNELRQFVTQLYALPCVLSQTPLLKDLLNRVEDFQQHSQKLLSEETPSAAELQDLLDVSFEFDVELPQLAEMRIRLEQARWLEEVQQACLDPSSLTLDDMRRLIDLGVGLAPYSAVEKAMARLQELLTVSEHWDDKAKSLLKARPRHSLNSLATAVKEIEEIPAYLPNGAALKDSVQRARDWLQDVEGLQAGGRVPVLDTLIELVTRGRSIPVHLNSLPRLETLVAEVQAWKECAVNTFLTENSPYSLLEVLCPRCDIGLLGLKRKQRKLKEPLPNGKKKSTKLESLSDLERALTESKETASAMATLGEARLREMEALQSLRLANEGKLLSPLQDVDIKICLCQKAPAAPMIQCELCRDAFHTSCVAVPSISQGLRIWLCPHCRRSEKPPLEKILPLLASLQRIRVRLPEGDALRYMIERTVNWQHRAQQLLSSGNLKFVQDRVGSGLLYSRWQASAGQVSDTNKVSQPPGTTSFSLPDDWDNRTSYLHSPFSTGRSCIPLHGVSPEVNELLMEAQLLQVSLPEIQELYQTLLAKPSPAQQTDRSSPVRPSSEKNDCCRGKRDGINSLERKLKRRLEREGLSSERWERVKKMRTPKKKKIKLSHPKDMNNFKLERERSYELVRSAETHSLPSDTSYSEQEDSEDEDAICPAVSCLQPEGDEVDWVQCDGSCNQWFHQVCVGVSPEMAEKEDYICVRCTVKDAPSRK

SMILES	Potency
COc1ccc(CN2CCC3(COC(=O)N3Cc3ccccn3)C2)cn1 (stereo not drawn)	inconclusive: 31.6 µM [inhibitor, single point]
COc1ccc2nc3oc(C(=O)N(C)c4ccc(Cl)cc4)cc3cc2c1	inconclusive: 22.4 µM [inhibitor, partial curve, poor fit]
CC(C)C(=O)NCc1ccc(-c2nc3ccccc3s2)cc1	inactive
COc1ccc(CN[C@H]2[C@H](O)[C@@H](N3CCN(c4ccccc4OC)CC3)[C@@H]3OC[C@H]2O3)cc1	inactive
Cc1cc(SCc2cccc(F)c2)c2ccccc2n1	inactive
COc1ccc(N2CCN(CC(O)COc3ccc(C(C)C)c(C)c3)CC2)cc1 (stereo not drawn)	inconclusive: 35.5 µM [inhibitor, single point]
CC(C)(C)NC(=O)c1ccc(-c2nnc3ccc(NC(=O)C4CC4)cn23)cc1	inconclusive: 3.16 µM [inhibitor, partial curve, poor fit]
CCN1c2cc(C(=O)Nc3cc(C)ccc3OC)ccc2C(=O)N2CCCCCC21 (stereo not drawn)	inconclusive: 17.8 µM [inhibitor, partial curve, poor fit]
Cc1ccc2c(c1)c(=O)c(C(=O)c1ccncc1)cn2CC(=O)Nc1ccc(C(C)C)cc1	inconclusive: 28.2 µM [inhibitor, partial curve, poor fit]
COc1ccc2[nH]c3c(c2c1)CCNC31CCN(C(=O)c2cccn2C)CC1	inconclusive: 31.6 µM [inhibitor, partial curve, poor fit]
COc1cccc([C@@H]2Nc3ccc(C(=O)O)cc3[C@@H]3C=CC[C@@H]32)c1OC	inconclusive: 35.5 µM [inhibitor, single point]
Cc1cc(C)c2oc(C(=O)Nc3cccc(Cl)c3)cc(=O)c2c1	inactive
CC(=O)Nc1cc(C(=O)NCc2ccccc2C)c2ccc(C)nc2c1	active: 25.1 µM
CN1CCOc2c(C(=O)NCCN3CCNC3=O)cc(-c3ccc(O)c(F)c3)cc21	active: 35.5 µM
O=C(NCc1ccc(Cl)cc1)c1ncoc1-c1cccs1	inconclusive: 22.4 µM [inhibitor, partial curve, poor fit]
Cc1noc(C)c1COC(=O)c1ccc(Cl)c(S(=O)(=O)N2CCCCCC2)c1	inactive
COc1cccc(Nc2ncc(C#N)c(N)n2)c1	inactive
CCN1CCN(c2oc(/C=C/c3cccc(OC)c3)nc2C#N)CC1	inconclusive: 14.1 µM [inhibitor, partial curve, poor fit]
O=C(NC1CC1)c1ccc(Cn2c(SCc3ccccc3F)nc3cccnc32)cc1	inconclusive: 25.1 µM [inhibitor, partial curve, poor fit]
C(=C\c1nc2ccccc2s1)/c1csc(-c2ccccc2)n1	inconclusive: 10 µM [inhibitor, partial curve, poor fit]
c1cnn(-c2ccc(-c3nc(C4CCOC4)no3)cc2)c1 (stereo not drawn)	active: 31.6 µM
CCN1CCN(c2nc3c(s2)CN(C(=O)COC)CC3)CC1	inconclusive: 28.2 µM [inhibitor, partial curve, poor fit]

SMILES	Potency
Fc1ccc(CNC[C@H]2Cn3c(-c4ccc(Cl)cc4)cnc3CO2)cc1	inactive
CC(C)OCCCNc1nc2c(S(=O)(=O)c3ccc(C(C)C)cc3)nnn2c2ccccc12	inactive
O=C(NCc1nnc2ccc(-c3ccccc3)nn12)c1ccc(F)cc1Cl	active: 28.2 µM
CC(NC(=O)c1nccnc1N)c1cccc(Cl)c1 (stereo not drawn)	inconclusive: 28.2 µM [inhibitor, partial curve, poor fit]
Cc1ccc(CNCCN2CCCC2)cc1C	inactive
COc1cccc(-c2nc3c([nH]2)CN(C(C)C(=O)NC2CCCCC2)CC3)c1 (stereo not drawn)	inconclusive: 15.8 µM [inhibitor, single point]
COc1cccc2[nH]c(C(=O)NCCCc3nnc4ccccn34)cc12	inconclusive: 31.6 µM [inhibitor, single point]
Cc1nc(/C=C/c2ccc(Cl)cc2)sc1C(=O)O	inactive
COc1ccc(CCC(C)(O)c2cc(-c3ccc(OC)cc3)no2)cc1 (stereo not drawn)	inactive
O=C(NCc1cccnc1)C(=O)Nc1nc(-c2ccccc2)cs1	inconclusive: 39.8 µM [inhibitor, single point]
CCCc1cc(=O)oc2c(C)c(OCC(=O)NCCCN(C)C)ccc12	inconclusive: 31.6 µM [inhibitor, partial curve, poor fit]
CC(=O)Nc1nc(C)c(-c2csc(Nc3ccccn3)n2)s1	inconclusive: 17.8 µM [inhibitor, single point]
CCOc1ccccc1-c1noc(-c2ncn3c2COC(c2ccc(OC)cc2)C3)n1 (stereo not drawn)	inconclusive: 25.1 µM [inhibitor, single point]
Cc1cc(C(=O)CCC(=O)NC2CCCCC2)c(C)s1	inactive
COc1cc2c(cc1OC)CN(CC(=O)Nc1ccc(F)cc1)C(C(=O)O)C2 (stereo not drawn)	inconclusive: 28.2 µM [inhibitor, partial curve, poor fit]
CN(C)S(=O)(=O)c1cc(NC(=O)CNCCN2CCOCC2)ccc1Cl	inconclusive: 12.6 µM [inhibitor, partial curve, poor fit]
Cc1ccc2c(c1)-c1c(c(C(=O)NCCc3ccccc3)nn1C)CS2	inconclusive: 1.78 µM [inhibitor, full curve, poor fit]
CCCCN(CC)CCCNC(=O)C1CCN(c2nc3ccc(CC)cc3s2)CC1	inconclusive: 28.2 µM [inhibitor, partial curve, poor fit]
CCN1c2cc(C(=O)N3CCN(c4ccc(OC)cc4)CC3)ccc2C(=O)N2CCCCC21 (stereo not drawn)	inconclusive: 25.1 µM [inhibitor, single point]
COc1ccc(C(=O)/C(C#N)=C\c2cc(Br)ccc2OC)cc1	inconclusive: 39.8 µM [inhibitor, single point]
CC(C)CCNC(=O)c1cccc(-n2cnc3cccnc32)c1	inconclusive: 17.8 µM [inhibitor, partial curve, poor fit]
